# Assay results as given in the supplement of paper PMC8728848.
# Some of the results follow.
# B1: OVGAL11 (Ovis aries), AAF64320 (protein)
# chain: MDSLPNPYLQSVSLTVCYMVKIKANLLSAFGKNPELQVDFGTGTGQGGNIPFRFWYCDGMVVMNTFTDGSWQKEEKVLTDAFVPGQPFELQFLVLEKEYQVFVKNKPICQFAHRLPLQSVKMLDVRGDIVLTSVDTL
# Key:
# Test in all cases: glycan array binding signal (z-score within array); higher = stronger binding
# Conditions in all cases: glycan notation: IUPAC condensed, linker removed
# [1] = target: GlcNAc(b1-3)Gal(b1-4)GlcNAc(b1-3)Gal(b1-4)GlcNAc
# In short: (§1)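 Columns mapping to the same glycan were averaged after glycan names were converted to IUPAC-condensed notation. The data come from 3228 arrays in the Consortium for Functional Glycomics database, limited to those with an available protein sequence. Binding is reported as a within-array Z-score averaged across arrays of one protein sequence and across linkers.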
# [2] = target: GlcNAc(b1-3)Gal(b1-4)GlcNAc(b1-3)Gal(b1-4)GlcNAc(b1-2)Man(a1-3)[GlcNAc(b1-3)Gal(b1-4)GlcNAc(b1-3)Gal(b1-4)GlcNAc(b1-2)Man(a1-6)]Man(b1-4)GlcNAc(b1-4)GlcNAc
# In short: as §1
# [3] = target: GlcNAc(b1-3)Gal(b1-4)GlcNAc(b1-3)Gal(b1-4)GlcNAc(b1-2)Man(a1-3)[GlcNAc(b1-3)Gal(b1-4)GlcNAc(b1-3)Gal(b1-4)GlcNAc(b1-2)Man(a1-6)]Man(b1-4)GlcNAc(b1-4)[Fuc(a1-6)]GlcNAc
# In short: as §1
# [4] = target: GlcNAc(b1-3)Gal(b1-4)GlcNAc(b1-3)Gal(b1-4)GlcNAc(b1-2)[GlcNAc(b1-3)Gal(b1-4)GlcNAc(b1-3)Gal(b1-4)GlcNAc(b1-6)]Man(a1-6)[GlcNAc(b1-3)Gal(b1-4)GlcNAc(b1-3)Gal(b1-4)GlcNAc(b1-2)Man(a1-3)]Man(b1-4)GlcNAc(b1-4)[Fuc(a1-6)]GlcNAc
# In short: as §1
# [5] = target: GlcNAc(b1-3)Gal(b1-4)GlcNAc(b1-3)Gal(b1-4)GlcNAc(b1-3)Gal(b1-4)GlcNAc(b1-2)Man(a1-3)[GlcNAc(b1-3)Gal(b1-4)GlcNAc(b1-3)Gal(b1-4)GlcNAc(b1-3)Gal(b1-4)GlcNAc(b1-2)Man(a1-6)]Man(b1-4)GlcNAc(b1-4)GlcNAc
# In short: as §1
# [6] = target: GlcNAc(b1-3)Gal(b1-4)GlcNAc(b1-3)Gal(b1-4)GlcNAc(b1-3)Gal(b1-4)GlcNAc(b1-2)Man(a1-3)[GlcNAc(b1-3)Gal(b1-4)GlcNAc(b1-3)Gal(b1-4)GlcNAc(b1-3)Gal(b1-4)GlcNAc(b1-2)Man(a1-6)]Man(b1-4)GlcNAc(b1-4)[Fuc(a1-6)]GlcNAc
# In short: as §1
# [7] = target: GlcNAc(b1-3)Gal(b1-4)GlcNAc(b1-3)Gal(b1-4)GlcNAc(b1-3)Gal(b1-4)GlcNAc(b1-2)[GlcNAc(b1-3)Gal(b1-4)GlcNAc(b1-3)Gal(b1-4)GlcNAc(b1-3)Gal(b1-4)GlcNAc(b1-6)]Man(a1-6)[GlcNAc(b1-3)Gal(b1-4)GlcNAc(b1-3)Gal(b1-4)GlcNAc(b1-3)Gal(b1-4)GlcNAc(b1-2)Man(a1-3)]Man(b1-4)GlcNAc(b1-4)[Fuc(a1-6)]GlcNAc
# In short: as §1
# [8] = target: GlcNAc(b1-3)Gal(b1-4)GlcNAc(b1-3)Gal(b1-4)GlcNAc(b1-3)Gal(b1-4)GlcNAc(b1-3)Gal(b1-4)GlcNAc(b1-2)Man(a1-3)[GlcNAc(b1-3)Gal(b1-4)GlcNAc(b1-3)Gal(b1-4)GlcNAc(b1-3)Gal(b1-4)GlcNAc(b1-3)Gal(b1-4)GlcNAc(b1-2)Man(a1-6)]Man(b1-4)GlcNAc(b1-4)GlcNAc
# In short: as §1
# [9] = target: GlcNAc(b1-3)Gal(b1-4)GlcNAc(b1-3)Gal(b1-4)GlcNAc(b1-3)Gal(b1-4)GlcNAc(b1-3)Gal(b1-4)GlcNAc(b1-2)Man(a1-3)[GlcNAc(b1-3)Gal(b1-4)GlcNAc(b1-3)Gal(b1-4)GlcNAc(b1-3)Gal(b1-4)GlcNAc(b1-3)Gal(b1-4)GlcNAc(b1-2)Man(a1-6)]Man(b1-4)GlcNAc(b1-4)[Fuc(a1-6)]GlcNAc
# In short: as §1
# [10] = target: GlcNAc(b1-3)Gal(b1-4)GlcNAc(b1-3)Gal(b1-4)GlcNAc(b1-3)Gal(b1-4)GlcNAc(b1-3)Gal(b1-4)GlcNAc(b1-2)[GlcNAc(b1-3)Gal(b1-4)GlcNAc(b1-3)Gal(b1-4)GlcNAc(b1-3)Gal(b1-4)GlcNAc(b1-3)Gal(b1-4)GlcNAc(b1-6)]Man(a1-6)[GlcNAc(b1-3)Gal(b1-4)GlcNAc(b1-3)Gal(b1-4)GlcNAc(b1-3)Gal(b1-4)GlcNAc(b1-3)Gal(b1-4)GlcNAc(b1-2)Man(a1-3)]Man(b1-4)GlcNAc(b1-4)[Fuc(a1-6)]GlcNAc
# In short: as §1
# [11] = target: GlcNAc(b1-3)Gal(b1-4)GlcNAc(b1-3)Gal(b1-4)GlcNAc(b1-3)GalNAc
# In short: as §1
# [12] = target: GlcNAc(b1-3)Gal(b1-4)GlcNAc(b1-3)GalNAc
# In short: as §1
# [13] = target: GlcNAc(b1-3)Gal(b1-4)GlcNAc(b1-3)[GlcNAc(b1-3)Gal(b1-4)GlcNAc(b1-3)]GalNAc
# In short: as §1
# [14] = target: GlcNAc(b1-3)Gal(b1-4)GlcNAc(b1-6)[Gal(b1-3)]GalNAc
# In short: as §1
# [15] = target: GlcNAc(b1-3)Gal(b1-4)GlcNAc(b1-6)[GlcNAc(b1-3)Gal(b1-3)]GalNAc
# In short: as §1
# [16] = target: GlcNAc(b1-3)Gal(b1-4)GlcNAc(b1-6)[GlcNAc(b1-3)]Gal(b1-4)GlcNAc
# In short: as §1
# GlcNAc(b1-3)GalNAc = target: GlcNAc(b1-3)GalNAc
# In short: as §1
# GlcNAc(b1-3)Man = target: GlcNAc(b1-3)Man
# In short: as §1
# [17] = target: GlcNAc(b1-3)[GlcNAc(b1-4)][GlcNAc(b1-6)]GlcNAc
# In short: as §1
# [18] = target: GlcNAc(b1-3)[GlcNAc(b1-6)]Gal(b1-4)GlcNAc
# In short: as §1
# [19] = target: GlcNAc(b1-3)[GlcNAc(b1-6)]GalNAc
# In short: as §1
# [20] = target: GlcNAc(b1-3)[GlcNAc(b1-6)]GlcNAc
# In short: as §1
# [21] = target: GlcNAc(b1-4)Gal(b1-4)GlcNAc
# In short: as §1
# GlcNAc(b1-4)GlcNAc = target: GlcNAc(b1-4)GlcNAc
# In short: as §1
# [22] = target: GlcNAc(b1-4)GlcNAc(b1-4)GlcNAc
# In short: as §1
# [23] = target: GlcNAc(b1-4)GlcNAc(b1-4)GlcNAc(b1-4)GlcNAc(b1-4)GlcNAc
# In short: as §1
# [24] = target: GlcNAc(b1-4)GlcNAc(b1-4)GlcNAc(b1-4)GlcNAc(b1-4)GlcNAc(b1-4)GlcNAc
# In short: as §1
# [25] = target: GlcNAc(b1-4)[GlcNAc(b1-6)]GalNAc
# In short: as §1
# [26] = target: GlcNAc(b1-6)Gal(b1-4)GlcNAc
# In short: as §1
# GlcNAc(b1-6)GalNAc = target: GlcNAc(b1-6)GalNAc
# In short: as §1
# [27] = target: GlcNAc6S(b1-3)Gal(b1-4)GlcNAc
# In short: as §1
# Kdn(a2-3)Gal(b1-3)GalNAc = target: Kdn(a2-3)Gal(b1-3)GalNAc
# In short: as §1
# Kdn(a2-3)Gal(b1-3)GlcNAc = target: Kdn(a2-3)Gal(b1-3)GlcNAc
# In short: as §1
# Kdn(a2-3)Gal(b1-4)Glc = target: Kdn(a2-3)Gal(b1-4)Glc
# In short: as §1
# Kdn(a2-3)Gal(b1-4)GlcNAc = target: Kdn(a2-3)Gal(b1-4)GlcNAc
# In short: as §1
# [28] = target: Kdn(a2-3)Gal(b1-4)[Fuc(a1-3)]GlcNAc
# In short: as §1
# Kdn(a2-6)Gal(b1-4)GlcNAc = target: Kdn(a2-6)Gal(b1-4)GlcNAc
# In short: as §1
# [29] = target: Man(a1-2)Man(a1-2)Man(a1-3)Man
# In short: as §1
# [30] = target: Man(a1-2)Man(a1-2)Man(a1-3)[Man(a1-2)Man(a1-3)[Man(a1-2)Man(a1-6)]Man(a1-6)]Man(b1-4)GlcNAc(b1-4)GlcNAc
# In short: as §1
# [31] = target: Man(a1-2)Man(a1-2)Man(a1-3)[Man(a1-2)Man(a1-6)[Man(a1-3)]Man(a1-6)]Man(b1-4)GlcNAc(b1-4)GlcNAc
# In short: as §1
# [32] = target: Man(a1-2)Man(a1-2)Man(a1-6)[Man(a1-3)]Man
# In short: as §1
# Man(a1-2)Man(a1-3)Man = target: Man(a1-2)Man(a1-3)Man
# In short: as §1
# [33] = target: Man(a1-2)Man(a1-3)[Man(a1-2)Man(a1-6)]Man
# In short: as §1
# [34] = target: Man(a1-2)Man(a1-3)[Man(a1-2)Man(a1-6)]Man(a1-6)[Man(a1-2)Man(a1-2)Man(a1-3)]Man
# In short: as §1
# [35] = target: Man(a1-2)Man(a1-3)[Man(a1-2)Man(a1-6)]Man(a1-6)[Man(a1-2)Man(a1-2)Man(a1-3)]Man(b1-4)GlcNAc(b1-4)GlcNAc
# In short: as §1
binder,measurement,setting,value
B1,glycan array binding signal (z-score),[1],-0.088
same,glycan array binding signal (z-score),[2],-0.05
same,glycan array binding signal (z-score),[3],-0.053
same,glycan array binding signal (z-score),[4],-0.029
same,glycan array binding signal (z-score),[5],-0.07
same,glycan array binding signal (z-score),[6],-0.053
same,glycan array binding signal (z-score),[7],-0.054
same,glycan array binding signal (z-score),[8],-0.11
same,glycan array binding signal (z-score),[9],-0.045
same,glycan array binding signal (z-score),[10],-0.055
same,glycan array binding signal (z-score),[11],-0.068
same,glycan array binding signal (z-score),[12],-0.046
same,glycan array binding signal (z-score),[13],-0.085
same,glycan array binding signal (z-score),[14],-0.089
same,glycan array binding signal (z-score),[15],-0.04
same,glycan array binding signal (z-score),[16],-0.102
same,glycan array binding signal (z-score),GlcNAc(b1-3)GalNAc,-0.147
same,glycan array binding signal (z-score),GlcNAc(b1-3)Man,-0.105
same,glycan array binding signal (z-score),[17],-0.138
same,glycan array binding signal (z-score),[18],-0.213
same,glycan array binding signal (z-score),[19],-0.084
same,glycan array binding signal (z-score),[20],-0.46
same,glycan array binding signal (z-score),[21],-0.305
same,glycan array binding signal (z-score),GlcNAc(b1-4)GlcNAc,-0.087
same,glycan array binding signal (z-score),[22],-0.164
same,glycan array binding signal (z-score),[23],-0.316
same,glycan array binding signal (z-score),[24],-0.251
same,glycan array binding signal (z-score),[25],-0.313
same,glycan array binding signal (z-score),[26],-0.185
same,glycan array binding signal (z-score),GlcNAc(b1-6)GalNAc,-0.159
same,glycan array binding signal (z-score),[27],-0.083
same,glycan array binding signal (z-score),Kdn(a2-3)Gal(b1-3)GalNAc,-0.066
same,glycan array binding signal (z-score),Kdn(a2-3)Gal(b1-3)GlcNAc,-0.191
same,glycan array binding signal (z-score),Kdn(a2-3)Gal(b1-4)Glc,-0.108
same,glycan array binding signal (z-score),Kdn(a2-3)Gal(b1-4)GlcNAc,0.277
same,glycan array binding signal (z-score),[28],-0.087
same,glycan array binding signal (z-score),Kdn(a2-6)Gal(b1-4)GlcNAc,-0.115
same,glycan array binding signal (z-score),[29],4.38
same,glycan array binding signal (z-score),[30],-0.54
same,glycan array binding signal (z-score),[31],-0.15
same,glycan array binding signal (z-score),[32],-0.179
same,glycan array binding signal (z-score),Man(a1-2)Man(a1-3)Man,-0.111
same,glycan array binding signal (z-score),[33],-0.209
same,glycan array binding signal (z-score),[34],-0.098
same,glycan array binding signal (z-score),[35],-0.133
